± gives the standard deviation of the averaged measurements. Some of the results follow.
test system: PfAP2-EXP AP2 domain (GST-tagged); assay: gcPBM binding intensity (ln(normalized median fluorescence intensity)); higher = stronger DNA binding
In short: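 The highest Masliner-normalised natural-log median intensity across replicate spots of either probe orientation is reported as binding intensity. GST-tagged P. falciparum DNA-binding domains expressed in E. coli were applied for 1 h to an Agilent 4 × 180k array of primer-extended double-stranded 36-bp intergenic genomic probes plus negative controls, and bound protein was detected with Alexa488 anti-GST antibody and scanned at 488 nm.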

Sequence	gcPBM binding intensity (ln)
TTTCTTTTTTCTGTTATTATTATAAAACGATATTTA [TGCATGCA_negctrl_site167]	8.61 ± 0.59
AATATTTTATATGTAGTGCATTACTATAGGATTTAT [GTGCAC_site9424]	8.82 ± 0.21
GCTGAAAGGATAAAGGTGCATATTTTTTAAAAAATT [GTGCAC_site9487]	8.86 ± 0.11
TTTTTTTTTTTTATATGTACTAATAATCTTTTTTTT [XGTACX_site3552]	8.31 ± 0.54
ACAAAATAAACGGCTGCACACAAGAAGCACAATATT [CACACA_site3690]	8.74 ± 0.42
TGCTTATATCTTATAATATTTATACATCATAATAAG [CACACA_negctrl_site629]	8.36 ± 0.42
TGTGTCAAATAATTAATGTCATATATATTTTGTATA [CACACA_negctrl_site1479]	8.22 ± 0.33
TATATATATATATATATACACACTATATAATTCAAA [CACACA_site1023]	10.2 ± 0.44
TTTTTTTTTTTTTAGAGTACACACTTTTTTACATTT [XGTACX_site8159]	8.34 ± 0.43
TTAACATAGATATATACACACCAATGATGGCATTTA [CACACA_site6840]	8.22 ± 0.37
AAATAAAAGTTCACCTGTACACACATATATATATGT [XGTACX_site3513]	8.84 ± 0.53
CATAAAATATAAAACACACACACATATATTTATATA [CACACA_site6247]	8.7 ± 0.54
TTGTGATTATTATATTGTACAATAAGTATTAAAGAA [XGTACX_site2753]	8.84 ± 0.085
GCAAATCATGCTATGGTGCATATGTAAGATGAGCAT	9.03 ± 0.31
TTCCTCTTAAAATATACACACTGATTTAAGAAAAAA [CACACA_site5770]	8.16 ± 0.34
ATATATAATACTACAGTGCAATATATTATATTTGTT	8.615 ± 0.035
ATACTAAATATAAATTGTACTTTATTTATATTGAGA [XGTACX_site8699]	8.38 ± 0.38
AGAATACATCTATGAACACACAGAGTTTTAAAAAAT [CACACA_site5514]	8.46 ± 0.45
ATATTATTTTAAAGTACACACATATATTGATATATA [CACACA_site7153]	8.48 ± 0.26

Sequence	gcPBM binding intensity (ln)
TTTTTCATTTAACAGAAGGGAGATAAAAAAAAAAAA [TGCATGCA_negctrl_site261]	8.56 ± 0.53
AATAATTATAAAAAATGTACAAAAAAAAAAAAAAAA [XGTACX_site3681]	8.18 ± 0.39
GTATGTATGTATGTATGTACGTATGTATGTATATAT [XGTACX_site3369]	9.27 ± 0.2
AAAATAATATTTAATACACACATAATTATAATATAA [CACACA_site782]	8.48 ± 0.32
ATTTTTAATTGAATCACACATTTCCTTTCTTTTGTG [CACACA_site4438]	8.67 ± 0.49
ACCTTTTGGATTATATGTACATATATATATATATAT [XGTACX_site2687]	10.2 ± 0.13
ATTAAAAATAAGAAGAGTACATATAATATATATACA [XGTACX_site3092]	8.47 ± 0.36
TTAAAAAGAAAGTTCACACACATATATATGACGGAA [CACACA_site2602]	8.93 ± 0.45
TTTATATTTATCCAAAGTACTTTTTAAAAACATACC [XGTACX_site4518]	8.53 ± 0.43
ATGAACATTTATAAATGTACTCACATATATATATTT [XGTACX_site6692]	8.71 ± 0.42
AACACTTTAATTTATGCACACATATGGAACAACAGC [CACACA_site8241]	8.87 ± 0.23
AACATTTTTAGATTATATTATTAAATAAGTAACTGC [XGTACX_negctrl_site326]	8.29 ± 0.45
AGATATATATTTTATTGTACACATTAAAGTATAAAA [XGTACX_site7194]	8.36 ± 0.23
TATGTATTTATATATACACACTTCTGTGATACGAAA [CACACA_site5128]	8.46 ± 0.55
AAGTTTTTTATTTTTTGTACATAAAAAATAATAATT [XGTACX_site1755]	8.29 ± 0.3
TTTTTGTTTTTTTTTTGTACATATATATAAAAAATA [XGTACX_site1214]	8.62 ± 0.38
TTTTTTTTAATATTTTACATTGTCTGTTAACAAATA [CACACA_negctrl_site599]	8.54 ± 0.49
GGGAGGATAGTTCACAGTACCCAGTAACTCTACGGA [XGTACX_site2558]	8.65 ± 0.52
ATTTATTGACTATTTACACACATATTTATTAGAATA [CACACA_site6863]	8.65 ± 0.45

Sequence	gcPBM binding intensity (ln)
ATGATACATAAAGAATATAAAACATGAAATATAATA [CACACA_negctrl_site1461]	8.56 ± 0.47
TAATTTAAAAATATAAATGTTTCACTTATATATTTT [TGCATGCA_negctrl_site399]	7.98 ± 0.35
ATATGAAAGGTGTACACACGCACACCCAAAAAAATA [CACACA_site2911]	8.62 ± 0.47
ATATATAATATATATGCATGTGACATTAATAATATA [TGCATGCA_site880]	8.57 ± 0.35
AACTGAGAAACCGAAGTGCAATATGTATATATACAT	8.98 ± 0.32
CCACACTTAAAATACACACACACCAAAAAAAAAAAA [CACACA_site2709]	8.43 ± 0.37
TTTTTTACGCATAACTTAATATGAGAATCCCTTTCT [GTGCAC_negctrl_site522]	8.48 ± 0.4
TACACCCATGGACACACACACACGCATAAAAAAAAA [CACACA_site4933]	8.63 ± 0.45
AAAAAAAAAAAAAAAACACACATTTGAAAGAAAGAA [CACACA_site3339]	8.71 ± 0.33
ATTTTTATTTTCTTTACACACCACATAATTTTTTTT [CACACA_site6092]	9.02 ± 0.52
CTTTTATGAAACAGTGCACACATAAAAATATATACA [CACACA_site8981]	9.05 ± 0.21
TATATCGTTATATAAACACACAATATGTTTTTTATA [CACACA_site7730]	8.29 ± 0.38
CATAAGAGGAACTTTTGTACTTATATGTATATAGTA [XGTACX_site5836]	8.32 ± 0.49
GCCACACTTTTCTGCACACATAAAAAATATATAAAT [CACACA_site578]	8.96 ± 0.3
ACATGAATTTATATGTGTACTAACTATATTCTTAAA [XGTACX_site5966]	8.27 ± 0.25
TCTGGCATATAATATTGTACACATATATATATATAT [XGTACX_site8182]	10.2 ± 0.33
TATATACAATATAGGTGTACATTTTTTTATCTATTT [XGTACX_site8431]	8.62 ± 0.31
ATGAATAAATAGGTCACACACAAATATTTATAAATA [CACACA_site7186]	8.77 ± 0.52
TATCTGTATTTATTCACACATATAAAATATAATTAA [CACACA_site5560]	8.34 ± 0.37
